IC50 data for one molecule are collected here from PubChem BioAssay AID2060348 (Molecular Pharmacology Branch, DTP, NCI, 2025).

For this experiment, the system named is 885724-159-R-J1-PDC spheroids viability. In words: Anticancer human tumor 885724-159-R-J1-PDC patient-derived pancreatic adenocarcinoma cell line growth inhibition [TAK]. The following applies: drug combinations; compound alone; run of 02/28/2020. An excerpt: Combinatorial screen of targeted agents with TAK-243 and ipatasertib in multi-cell type tumor spheroids
A high-throughput screen of multi-cell type tumor spheroids was designed to identify active combinations of targeted small molecules and TAK-243 or ipatasertib. Complex spheroids include a stromal component modeled by human endothelial cells (HUVEC) and fibroblasts modeled by human mesenchymal stem cells (MSCs). The concentration ranges selected for each drug and investigational agent were based upon clinically achievable concentrations if the clinical Cmax of the agent was known.
Compounds. […] If the clinical Cmax for an agent had not been determined, the highest concentration tested was 10 microM.
NCI60 Cell Culture. […] The optimal seeding densities for each of the cell lines at each time point assessed were determined prior to performing the concentration response studies. […]
For the pre-screen, cell seeding densities were determined from a titration spanning the range from 5,000 to 313 cells per well. […]

Not every entry of the source has a single result; some have several. The list is limited to them. There may be further records. The records of an entry are repeats in other runs, samples, wells, individuals or studies.
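Note: spheroids exposed to drugs for seven days.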

As usually defined, the IC50 is the point on the concentration scale where inhibition reaches its midpoint. With `CC(C)NCC(C(=O)N1CCN(c2ncnc3c2C(C)CC3O)CC1)c1ccc(Cl)cc1` (stereo unspecified), the IC50 is 7.04, 10.7, 9.45, 4.68, 4.51, 7.46, 5.55, 5.18, 3.49, 5.89 µM.
